Test results: US9689040B2, “Selective inhibitors of tumor-initiating cells” (Children's Medical Center Corporation, priority 2011, dated 2017)

Columns and labels:
HMLER cells = assay: ATP levels after exposure to BRPA; assay type: cell-based, human; conditions: exposure for 4 hours, when most cells were viable
BPLER cells = assay: ATP levels after exposure to BRPA; assay type: cell-based, human; conditions: exposure for 4 hours, when most cells were viable

O=C(O)C(=O)CBr [BRPA, 3-bromo-pyruvic acid]
decrease of ATP levels (HMLER cells): 60%
decrease of ATP levels (BPLER cells): 90%
